{
  "source": "the supplement of paper PMC12632987",
  "binders": {"B1": {"name": "LC3A_147_519 (protein)", "chain": "MKYKVTVTIYTDGPPEEAREIAEEVVEELKEKGLVEKAEIEVKEIDPDGTLTEVTITLYTKTKEKAEEAANEAVNRFEELAEKRGIKVYAISVEIEEIEE"}, "B2": {"name": "LC3A_45_1956 (protein)", "chain": "MYEATVYVLVPAEDFDRVAAVLREEAERLRRERGVEVEIDPAALAAAREEAEREGEALLEVRVIAETRQTALDAADEIADAVEAASPPSVAVAISVEEVP"}, "B3": {"name": "LC3A_28_1127 (protein)", "chain": "SEAKKAAEEALKKAKEEAEKGEYVVAEFTITDKMTEEEVDYVLEKIEETAEYLESKGQNSILVNIDIRNRPELRDYVIDKVDEIHKKYPSVNIVIALVEQ"}, "B4": {"name": "LC3A_28_748 (protein)", "chain": "SEIEKQLEEALKKAKEAAEKNEPVVITIKVSGSATEEDIEKVIEALYEIAEILKNVKDQAIIIDVDGSLKQEHLDKLVDAAEEIEKKYPNVTVIIALDEE"}, "B5": {"name": "LC3A_28_994 (protein)", "chain": "SELEKQLEEALKEAKEAAKAGKPTVITIKVPGSANEEDIEKVIKKLEEIAEILKDVKGSAIIIDLDGDLDEELRQKIIDAAEEIEKKYPNITVIIALDEE"}, "B6": {"name": "LC3A_36_1339 (protein)", "chain": "MKVITATSEKEDIEKATKKANEEGADLRVVFTPEDTVEEIREALELVLELSKNISSVIVDLDAATQEELMKKLKVASEVADKIEEKNGKTVIIAYDVVEP"}, "B7": {"name": "LC3A_141_379 (protein)", "chain": "MTETVTRTFADLPAAEAEAAGIATLRELFARARAAGAKTITITITVTATVDGKTHTRTETFTGPVTNEMVLGGAEVFLGLVALQFEGHKLTVTITATFTY"}, "B8": {"name": "LC3A_3_1731 (protein)", "chain": "MEEILKEAREKLESLGFSEEVIEAALETIEALLKKGLEEEVELLLETLEKIKDANQEDILYYLEEIKELVETSKESKEELAKKVKEEIKILENDSEIEEL"}, "B9": {"name": "LC3A_3_1534 (protein)", "chain": "MEEKIEETLKLLKEAGASEETLEKFKEAVEALKERGYEKALETLIEETKKLAGLPSEYLLEFFEEVLELIKNSDLNEEELIKKIREIARIVKNEAEIEEL"}, "B10": {"name": "LC3A_28_666 (protein)", "chain": "SELEENIKAALEEAKEAAEKGVPVVITIEVPGDATEEEIDKVIEAMEEIAEILKDIEGSAIIIDLEEGVAEEHRDKLIDKAEEIEEKYPNVTVIIAYPER"}, "B11": {"name": "LC3A_free_46_2436 (protein)", "chain": "VVVKIDVSLLHEDEEVLKKAVEEIVKKAKEIAEKYGGKIEIKVEFSEDEDGYHFADIEITVKVETKEKAEKIANELIDAIDEIVEKYDVSAIISVEIEEE"}, "B12": {"name": "LC3A_28_874 (protein)", "chain": "SRVEEELKKVEEEGKKQAEEGEDIVLHVKISSEFTLEEAVELMKRVLELAEKLVKETGLKVTIVVDFDGSQETLDAILKLAEEAEKRNPKITVIFAISEE"}, "B13": {"name": "LC3A_102_160 (protein)", "chain": "DIEEKIKEIIEEKVKEMEEFLEKEESLTEEEKKEILEIVRRALEAKARILLSEAQHGFVDLVAEDELLRAREELKQYPKRVQEKAEEILRRAEEEIKKLL"}, "B14": {"name": "LC3A_free_26_2134 (protein)", "chain": "EEWLDIAALDRAIDLLEEILKILEKNKGKYEELIKKVKKAIELLKKETLEALKEAAKLLKEILKELKKLKKEDPELMEKLIKLAEEALKLVEENIKIMES"}, "B15": {"name": "LC3A_28_1236 (protein)", "chain": "NKVEKQIEEAKKKVEEAVKKGEEALVTLTVTKETNQEDIEKIIKAMEEIAELGKDLPALSIIIDVEKGVKQEHIDKLAKAAEEIEEKYPNVTVIIALEEE"}, "B16": {"name": "LC3A_free_46_2363 (protein)", "chain": "MEIDIDLLAKNKSEEEVKKIAEEIKKDIEKAAKEHGVKVKIEYEIEKLEDGDYFISIKIEVEAETKEKAQAFETSVLDIVEKYSLKYNLSAIISITETKP"}, "B17": {"name": "LC3A_147_430 (protein)", "chain": "YITDVDIDILTKDAEEEVIEAAKEIAEELRAKGYDVELDIEVEDLENGEKYIDIEIEIETETEEEAKEAADYVIDKWDELEEKLKDKILGSIISVDIEKA"}, "B18": {"name": "LC3A_3_1677 (protein)", "chain": "MEKLLEEAKKTVDKTIKNKEVQAKFKEALDLLAERGLEENIKAVAELVKKMKNLPEEEQLAFANELLATVKAATGSPEAAAAAVASEIATLTNEIEIEEL"}, "B19": {"name": "LC3A_free_8_2540 (protein)", "chain": "NTEEATRKVTEALDELEERLREKARELGLPRLDILDLELLVGSTIAEVIGLRDGKIEDIRKAVKEGMEEVLKEAAELSPELAKLVKEGEKEILELLKELE"}, "B20": {"name": "LC3A_28_704 (protein)", "chain": "SMLEENIERALEEAKRAAEEGKEAVIEITVPSTATQEDIDKVIEALYEIAEIVKDLKRTSIIVNVEGGVKQEHIDKLIDAGEEIEKKYPNVTVIFALDEE"}, "B21": {"name": "LC3A_28_771 (protein)", "chain": "MDIEEEGRRALEEAREAAARGEEAVITLTVPEGATQEDIEKAIKALEEIAEILKDMPRASIVIDVESGVEQENLDKLAKAAEELEKKYPNLTVIIALDEE"}, "B22": {"name": "LC3A_free_46_2332 (protein)", "chain": "MLVVVEVDVLAPDKETAEAFAEELRRLIEERLKEAGIEAEVEVELEEAEDGKHFRVLVKVRIKDPNADPEEVANLVVDAIDEAAEKHGLSYIISVEIEEL"}, "B23": {"name": "LC3A_free_46_2294 (protein)", "chain": "YIVEIDIDVTGLTKEKAEKLKEELTKEIEKLAEELGLEVEIEVEIEKNEDGTYLVRIRITVKAETLELAKKAQDEIIDIVDKLAEKYGADAVISYEIEEA"}, "B24": {"name": "LC3A_28_1068 (protein)", "chain": "SAIDKQLEAALKEAKEAAAKGEEATITLTIGKDATEEDVEKVLKTMEEIAEINKDLPSVSIIVDVDNENQWEVTKKVSEKGDELEKKYPHVNVIIALDEE"}, "B25": {"name": "LC3A_free_0_2108 (protein)", "chain": "TTMVVEVVAISKEKLSEEEIKKAKEELEKKAEEISKKYGVKTEVSVSEVDGRAVFTLTVRGEGLSLDTALEIEDELSDHVEKVFKELGKEATIFSSVYRE"}, "B26": {"name": "LC3A_free_39_2243 (protein)", "chain": "SAEEEREAEEEILELAAEEGEEARRLAEEILEILRGRPEAVKELLKLLKELKENGGDVLEALRRALEVAERLRAAGASQEEIAEAIIEELRDELNLIPLD"}, "B27": {"name": "LC3A_free_39_2288 (protein)", "chain": "SMEELEKAVKRLAELLDKIEGVTEEEKQTILEAAKKSLETAKAILEALETIEKDGGDVAEAAKRIAAKIKELEAAGKSLEEMTEEIIALTKDLVNLIPID"}, "B28": {"name": "LC3A_45_1948 (protein)", "chain": "MWEATVDVLVPAEDFDAAVAVLRREAERLEREEGVEVELDEEALAAARAEAEAEGEALLTVRVRHEDEEVALDAADRIADALLAELSPSVAVAISVERVP"}, "B29": {"name": "LC3A_3_1740 (protein)", "chain": "MAERLAAARARLEALGLSPEVVAAALRVVEALLAKGYERAVETLLELLAEAAGLPDDILLAMLEDILRRVETEDLSEEEVIKLIEEEFRVARAEAEIEEL"}},
  "note": "Whole data set: some 2,300 sequences, median “median log2 fold change of GCK-ALFA target abundance (FLAG IP / Myc IP barcode read proportion)” near 0.095, cut for the lowest 2% near -0.47. The list shows a part of the results.",
  "data": [
    {"biological_target": "MAP1LC3A, Q9H492", "assay": "median log2 fold change of GCK-ALFA target abundance (FLAG IP / Myc IP barcode read proportion) (log2 ratio); each designed protein is fused to an ALFA-tag nanobody in HEK293 cells to bring the named protein to FLAG-tagged glucokinase (GCK); Myc marks an untargeted standard; higher = target protein stabilised (more abundant)", "details": "target protein: 3xFLAG-MCP-GCK-ALFA reporter; HEK293 landing pad (RPLP)", "in_short": "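An ALFA-nanobody-fused binder library was recombined into HEK293 landing-pad cells and induced with 2 μg mL^−1 doxycycline. Cells were transfected with a plasmid expressing a FLAG-tagged target and a Myc-tagged standard. After 48 h, lysates underwent anti-FLAG and anti-Myc immunoprecipitation, and circular RNA barcodes were reverse transcribed, amplified and sequenced. Target abundance is the per-binder median log2 ratio of FLAG to Myc barcode read proportions. Barcodes needed ≥10^−7 proportion in both replicates, binders ≥3 barcodes per replicate, and a 10^−6 pseudocount was added; the two replicates were pooled.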", "values": [
      {"binder": "B1", "median log2 fold change": -0.278},
      {"binder": "B2", "median log2 fold change": -0.323},
      {"binder": "B3", "median log2 fold change": -0.102},
      {"binder": "B4", "median log2 fold change": -0.136},
      {"binder": "B5", "median log2 fold change": -0.239},
      {"binder": "B6", "median log2 fold change": 0.21},
      {"binder": "B7", "median log2 fold change": 0.216},
      {"binder": "B8", "median log2 fold change": 0.00619},
      {"binder": "B9", "median log2 fold change": 0.231},
      {"binder": "B10", "median log2 fold change": 0.165},
      {"binder": "B11", "median log2 fold change": -0.464},
      {"binder": "B12", "median log2 fold change": -0.0473},
      {"binder": "B13", "median log2 fold change": 0.285},
      {"binder": "B14", "median log2 fold change": -0.142},
      {"binder": "B15", "median log2 fold change": 0.233},
      {"binder": "B16", "median log2 fold change": 0.0338},
      {"binder": "B17", "median log2 fold change": -0.294},
      {"binder": "B18", "median log2 fold change": 0.209},
      {"binder": "B19", "median log2 fold change": 0.029},
      {"binder": "B20", "median log2 fold change": -0.0339},
      {"binder": "B21", "median log2 fold change": -0.073},
      {"binder": "B22", "median log2 fold change": 0.0733},
      {"binder": "B23", "median log2 fold change": 0.0448},
      {"binder": "B24", "median log2 fold change": -0.0226},
      {"binder": "B25", "median log2 fold change": 0.0605},
      {"binder": "B26", "median log2 fold change": 0.27},
      {"binder": "B27", "median log2 fold change": 0.326},
      {"binder": "B28", "median log2 fold change": -0.214},
      {"binder": "B29", "median log2 fold change": 0.278}
    ]}
  ]
}
